In PubChem BioAssay AID624296 (National Center for Advancing Translational Sciences (NCATS), 2012):
About 9,900 (2.8%) of roughly 350,000 compounds were called active. The shares of active, inactive and inconclusive entries below differ from those in the screen. Calls come from the whole dose curve; as a rule, active = well fitted activation curve with a large enough effect; inconclusive = small, poorly fitted or top-dose-only effect; inactive = no such curve, though single readings can be large or run the other way. Potencies of inconclusive entries are left out as doubtful fits.

Assay: A quantitative high throughput screen for small molecules that induce DNA re-replication in MCF 10a normal breast cells. Note: nearly all actives have a fitted effect of over 50% in size.
Conditions: MCF 10A DNA re-replication, Hoechst nuclear intensity, 48 h; series mostly up to 46.1 µM
Potency is the fitted concentration of half-maximal effect; tags give direction and shape of the fitted curve.

| SMILES | Potency |
| --- | --- |
| O=C(Nc1nccs1)c1cccc(N2C(=O)c3cccc4c([N+](=O)[O-])ccc(c34)C2=O)c1 | active: 3.66 µM |
| CN(CCCCCCN(C)Cc1ccccc1O)Cc1ccccc1O | inconclusive [activator, partial curve, poor fit] |
| Cc1ccc(/C=N/NC(=S)NC(C)C)o1 | inactive |
| CCOC(=O)CC1(NC(=O)C2CCC(=O)N(CCc3ccccc3)C2)CCCCC1 (stereo not given) | inactive |
| Cc1ccc(S(=O)(=O)N(CC(=O)N=Nc2c(O)[nH]c3ccccc23)c2cccc(C)c2)cc1 | inconclusive [activator, single point] |
| Cc1ccc(S(=O)(=O)CCC(=O)Nc2ccccc2Br)cc1 | inconclusive [activator, single point] |
| O=C(CSc1nnc(NC2CC2)s1)c1ccc[nH]1 | inactive |
| Cc1ccc(/C=N/NC(=O)c2c(C)nc3ccc(Br)cn23)cc1 | inconclusive [activator, partial curve, poor fit] |
| O=C(/C=C/c1ccccc1O)c1ccco1 | active: 14.6 µM |
| O=C1/C(=C/c2ccc([N+](=O)[O-])cc2)C=C(c2ccccc2)N1c1ccc(O)cc1 | active: 18.4 µM |
| O=C(CN1C(=O)c2cccc3cccc1c23)Nc1ccccc1 | active: 20.6 µM |
| CCCOc1cccc(C2C(C(=O)c3cccs3)=C(O)C(=O)N2Cc2cccnc2)c1 (stereo not given) | inconclusive [activator, partial curve, poor fit] |
| COc1cc(C(=O)NCCCNc2ccc([N+](=O)[O-])cc2)cc(OC)c1OC | inactive |
| COc1ccc(C(=O)Nc2nnc(-c3cccs3)s2)cc1 | inconclusive [activator, partial curve] |
| Cc1ccccc1C(=O)NC(=S)Nc1ccc(Oc2ccc(Cl)cc2)cc1 | inactive |
| O=C1OCCN1C(=O)[C@H]1[C@H](c2ccc(Cl)cc2)C(c2cccc(Cl)c2)=NN1c1ccc(Br)cc1 | inconclusive [activator, full curve, poor fit] |
| COC(=O)CCS(=O)(=O)c1ccc(NC(C)=O)cc1 | inconclusive [activator, partial curve, poor fit] |
| Cc1ccc(Nc2nnc(C3C(=O)N(C)C4(C)CC3c3cc(Br)ccc3O4)s2)cc1 (stereo not given) | inconclusive [activator, partial curve, poor fit] |
| O=C(CSc1nnc(NC(=O)C2CC2)s1)Nc1ccccc1Cl | inactive |
| COc1ccc(CCC(C)NC(=O)Cc2ccc(OC)c(OC)c2)c(OC)c1 (stereo not given) | inactive |
| CCOC(=O)CN1C(=O)Nc2ccc(Br)cc2C1c1ccccc1 (stereo not given) | inactive |
| COc1ccc(NS(=O)(=O)c2cc(N)ccc2N2CCCCC2)cc1 | inactive |
| COc1cc(OC)c(OC)cc1CCC(C)NCCC(c1ccccc1)c1ccccc1 (stereo not given) | inconclusive [activator, single point] |

| SMILES | Potency |
| --- | --- |
| COc1ccccc1N1CCN(C(=O)CCc2c[nH]c3ccccc23)CC1 | inconclusive [activator, partial curve, poor fit] |
| COC(=O)c1ccccc1NC(=O)CSc1nnnn1-c1ccc(C)cc1C | active: 12.6 µM |
| O=C(Nc1ccc(Cl)cc1)c1cc(S(=O)(=O)N2CCOCC2)cs1 | inactive |
| O=C(c1ccco1)N1CCCN(Cc2cn[nH]c2-c2ccc(-c3ccccc3)cc2)CC1 | inconclusive [activator, single point] |
| Cc1ccc(NC(=O)Nc2cc(-c3ccccc3)nn2C)cc1Cl | inconclusive [activator, single point] |
| CCOC(=O)c1sc(=S)n(-c2ccc3c(c2)OCO3)c1N | inconclusive [activator, full curve, poor fit] |
| O=C1CCCN1CCCNc1ccc2nnc(CCC(=O)N3CCN(c4ccccc4)CC3)n2n1 | inactive |
| O=C(C1CCCN(S(=O)(=O)c2cccc3nonc23)C1)N1CCN(c2ccccc2Cl)CC1 (stereo not given) | inconclusive [activator, single point] |
| CCOC(=O)c1ccc(Cl)c(NC(=O)c2ccc(-c3ccccc3)cc2)c1 | active: 3.66 µM |
| COc1ccccc1OCCNc1nc2c(c(=O)n(C)c(=O)n2C)n1C | inconclusive [activator, single point] |
| Fc1ccccc1/C=N/n1c(-c2cccnc2)n[nH]c1=S | inconclusive [activator, full curve, poor fit] |
| CC(NC(=O)C(c1ccccc1)c1ccccc1)C(=O)N1CCCCC1 (stereo not given) | inconclusive [activator, single point] |
| CC(=O)NC(CC(=O)NNC(=O)c1cc2ccccc2cc1O)c1ccccc1 (stereo not given) | inactive |
| CCCc1c(C)nc2ccccc2c1SCCC#N | inconclusive [activator, single point] |
| COc1ccc(CC(=O)Nc2ccccc2NC(=O)c2ccco2)cc1OC | inconclusive [activator, partial curve, poor fit] |
| O=S(=O)(Nc1nc2ccccc2nc1Nc1ccc(N2CCOCC2)cc1)c1cc(Cl)ccc1Cl | inconclusive [activator, partial curve, poor fit] |
| Cc1nc(NC(=O)CSC2=NCCS2)sc1C(=O)N(C)C | inconclusive [activator, full curve] |
| Cc1ccc(OCC(=O)Nc2ccc(-c3nc4ncccc4o3)cc2)c(C)c1 | inconclusive [activator, full curve, poor fit] |
| CCOCCCNC(=O)c1ccc2c(c1)ncn2-c1cccc(C)c1 | inconclusive [activator, single point] |
| COC(C[C@@H]1O[C@@H]1C(=O)[C@H](C)OCc1ccccc1)OC | inactive |
| COc1cccc2cc(S(=O)(=O)c3ccc(C)cc3)/c(=N/NS(=O)(=O)c3ccc(C)cc3)oc12 | inactive |
| O=C(Oc1ccc(=O)n(-c2ccccc2)n1)c1ccccc1 | inconclusive [activator, partial curve, poor fit] |
